Laboratory results published in article PMC12040169 (PLOS Biology, 2025).
The other results are listed elsewhere or left out.

System: T1, C. trachomatis L2/434/Bu expressing GFP (CTL2-GFP)
T1 construct: L2/434/Bu GFP intracellular growth in HeLa cells
Set-up: species or system HeLa; C. trachomatis total inclusion area by high-content imaging, normalised to DMSO
Details: total inclusion area; 28.5 h, 10 µM; inhibitor
Summary of the method: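 Bulk GFP and resorufin signals were read first. Wells were then fixed, stained with Hoechst and imaged to detect GFP inclusions and host nuclei. MICs followed the previously described calculation.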

Compared with `Cc1ncsc1CCOc1ncccc1C(F)(F)F` [CBK115781], `OCc1ncccc1OCCOC1CCCCO1` (stereo not drawn) [CBK045702] is lower in “% of control remaining” value: 85.4313 for the first, 82.2985 for the second.

First: Oc1cc2cccnc2nc1-c1ccc(OCc2ccccc2)c(F)c1 [CBK073708]
Second: O=C(Nc1nccs1)c1nccnc1-c1ccc(COc2ccccc2)cc1 [CBK050839]
The “% of control remaining” value of the first is lower: 94.5633 for the first, 125.287 for the second.

Going from `CSc1ccc(-c2cnc3nc(N)ccc3c2)cc1` [CBK081169] to `Cc1cccc(-c2nc(C(N)=O)c3[nH]c(=O)n(-c4ccc(F)cc4)c3n2)c1` [CBK287632], the “% of control remaining” value falls from 93.3134 to 83.0279.

Compared with `CN(C)C(=O)CN1C(=O)[C@H]2CCCN2C(=O)c2ccccc21` [CBK282854], `CC(Sc1nc2ccccc2c(=O)n1C)C(=O)N1CCOCC1` (stereo not drawn) [CBK305031] is lower in “% of control remaining” value: 120.056 for the first, 39.6746 for the second.

Compared with `COc1cc(CNc2cncc(-c3ccc(N)cc3)n2)cc(OC)c1OC` [CBK065483], `COc1ccc(-c2nnc(SCC(=O)NN)n2-c2ccccc2)cc1OC` [CBK262264] is higher in “% of control remaining” value: 67.8883 for the first, 88.4427 for the second.

Compared with `Nc1ncc(-c2ccoc2)nc1NCc1ccncc1` [CBK063656], `O=C(NCc1cccs1)c1ccc(-c2ccoc2)nc1` [CBK156269] is higher in “% of control remaining” value: 83.9189 for the first, 89.338 for the second.

Going from `CCCNC(=O)Cn1cnc2sc(C)c(C)c2c1=O` [CBK305863] to `CCCn1ccnc1CNc1nc(C)nc2c1c(C)nn2C` [CBK307459], the “% of control remaining” value rises from 52.2228 to 77.2294.

Compared with `CCOc1cc(/C=C2\SC(=N)NC2=O)ccc1OCc1ccc(Br)cc1` [CBK263813], `Cc1c(OCc2ccc(C(=O)O)cc2)ccc2c(-c3ccccc3)cc(=O)oc12` [CBK296080] is lower in “% of control remaining” value: 108.33 for the first, 82.7495 for the second.

Compared with `CCCCN(C)c1c(C)nc2c(Oc3nc4ccccc4s3)cccn12` [CBK147192], `COCCn1nc(C(=O)N(C)Cc2nc3ccccc3s2)ccc1=O` [CBK305338] is higher in “% of control remaining” value: 80.0268 for the first, 107.932 for the second.

First: Cn1nc(C2CCN(C(=O)c3ccccc3F)CC2)c2cccnc21 [CBK285019]
Second: COc1cccc(NC(=O)N2CC[C@H]3CC(=O)N(c4ccccc4)CC[C@H]3C2)c1 [CBK288787]
The “% of control remaining” value of the first is higher: 82.9747 for the first, 73.7635 for the second.

First: CC(C)(C)NS(=O)(=O)c1ccc(NC(=O)COc2ccc3ccccc3c2Br)cc1 [CBK267015]
Second: CC(C)(C)NS(=O)(=O)c1ccc(NC(=O)c2cc(-c3ccccn3)nc3c(Cl)cccc23)cc1 [CBK267783]
The “% of control remaining” value of the first is higher: 118.262 for the first, 96.8731 for the second.

Going from `C1C/C(=N/N=C2\CCCc3nonc32)c2nonc2C1` [CBK006721] to `Cc1ccc(-c2c(N3CCCC3)n[nH]c2C2CC2)cc1` [CBK288192], the “% of control remaining” value rises from 41.3707 to 53.4516.

Compared with `CN1CCN(C(=O)C2CCCCC2C(=O)O)CC1` (stereo not drawn) [CBK287092], `CC(=O)N1CCN(C(=O)C[C@@H]2C[C@@H](C(C)C)[C@H](CC#N)C=C2C)CC1` [CBK289214] is lower in “% of control remaining” value: 110.462 for the first, 64.8844 for the second.

First: NC(=O)C1CCN(Cc2nc(-c3cccc(C(F)(F)F)c3)no2)CC1 [CBK304276]
Second: Cc1cc(CN2CCN(S(=O)(=O)c3ccc(C(F)(F)F)cc3Cl)CC2)cc(C)c1O [CBK063074]
The “% of control remaining” value of the first is lower: 78.0508 for the first, 83.9805 for the second.

Going from `COc1ccc(C(=O)Nc2cccc3nsnc23)cc1OC` [CBK260973] to `O=C(COc1ccc([N+](=O)[O-])cc1)Nc1cccc2nsnc12` [CBK263808], the “% of control remaining” value falls from 81.7204 to 52.2679.

Going from `O=C1c2ccccc2C(c2ccc(NC(=O)c3cccc4ccccc34)cc2)(c2ccc(NC(=O)c3cccc4ccccc34)cc2)c2ccccc21` [CBK261162] to `Cc1cccc(NC(=O)Cn2cc(C(=O)COc3ccccc3)c3ccccc32)c1` [CBK268654], the “% of control remaining” value rises from 89.1126 to 101.835.

Going from `CC(NC(=O)N(CCC#N)C1CCCCC1)c1ccccc1` (stereo not drawn) [CBK156382] to `CC(NC(=O)C1C2C=CC(C2)C1C(=O)O)c1ccccc1` (stereo not drawn) [CBK265384], the “% of control remaining” value falls from 101.083 to 100.711.

Going from `NCC(=O)Nc1ccc(Cl)c(Cl)c1` [CBK046317] to `COCC(=O)Nc1ccc2c(c1)NC(=O)C(C)(C)CO2` [CBK287658], the “% of control remaining” value rises from 91.5967 to 94.1697.

Going from `COc1ccc(-n2ccn(C(=O)CCC3CCCC3)c2=O)cc1` [CBK106595] to `COc1ccccc1Cc1cccc(C2CCCN2C(=O)CCc2ccc(F)cc2)n1` (stereo not drawn) [CBK286238], the “% of control remaining” value falls from 105.61 to 89.0759.

Going from `O=C(O)c1cccc(-c2cc(N3CCN(Cc4cccnc4)CC3)n3nccc3n2)c1` [CBK037080] to `O=S(=O)(c1cc(Cl)ccc1Cl)N1CCCN(Cc2ccccc2)CC1` [CBK044491], the “% of control remaining” value falls from 136.784 to 84.695.

First: CCN1CCN(C(=O)CN(CC)S(=O)(=O)c2ccc3ccccc3c2)CC1 [CBK267913]
Second: CCCNCC(=O)N1CCN(C(=O)c2ccc(C)cc2)CC1 [CBK025546]
The “% of control remaining” value of the first is higher: 89.1002 for the first, 57.7278 for the second.

Compared with `N#Cc1ccc(-c2cc(NCCc3ccncc3)ncn2)cc1` [CBK037787], `COc1ccc(CCC(=O)Nc2ncn(Cc3cccc(C)c3)n2)cc1` [CBK288227] is lower in “% of control remaining” value: 152.311 for the first, 109.744 for the second.

First: COC(=O)N/N=C(/C)c1ccc(C)cc1 [CBK016149]
Second: CC(C)CCNC(=O)CC(=O)Nc1ccc(C(=O)O)cc1 [CBK286721]
The “% of control remaining” value of the first is higher: 68.9914 for the first, 62.0411 for the second.

Compared with `CN(C)CCNCCCSc1ccc(Cl)cc1` [CBK267794C], `Cc1c(F)cccc1CNCc1ccc(CNC(=O)OC(C)(C)C)cc1` [CBK056708] is higher in “% of control remaining” value: 82.4764 for the first, 118.299 for the second.

Compared with `COc1ccc(Oc2coc3c(CN(C)C)c(O)ccc3c2=O)cc1` [CBK263653], `CCOC(=O)c1cn(CCSCC)cc(Oc2ccccc2)c1=O` [CBK307244] is lower in “% of control remaining” value: 113.395 for the first, 55.759 for the second.

Going from `CC(C)[C@@H](N)C(=O)N1CC[C@@H]2NC(=O)[C@@H](Cc3ccccc3)NC(=O)C3(C/C=C/C[C@H]2C1)CCOCC3` [CBK292201] to `O=C(C1CC2C=CC1C21CC1)N1CCCC(c2nc3ccccc3[nH]2)C1` (stereo not drawn) [CBK281513], the “% of control remaining” value rises from 85.5657 to 97.9658.

Compared with `Cn1c(Cc2ccccc2)nnc1Sc1ccc(C(=O)O)cc1[N+](=O)[O-]` [CBK265038], `COc1cc([N+](=O)[O-])ccc1NC(=O)NCc1ccc(C(=O)O)cc1` [CBK267092] is higher in “% of control remaining” value: 104.134 for the first, 117.553 for the second.

First: O=C(NCCn1nc(-c2cccs2)ccc1=O)c1cccs1 [CBK283836]
Second: CC(C)(C)C(=O)NCCn1c(=O)oc2ccccc21 [CBK282885]
The “% of control remaining” value of the first is lower: 98.1654 for the first, 119.852 for the second.

Compared with `Cc1cnc(CNC(=O)N2CCc3ccccc3C2)cn1` [CBK155166], `CN1Cc2ccccc2CC1C(=O)N1CCc2ncc(Cl)cc2C1` (stereo not drawn) [CBK282568] is lower in “% of control remaining” value: 133.163 for the first, 110.606 for the second.

Compared with `CC(=O)N1CCCC(c2cc3cccnc3n2CCN2CCCC2)C1` (stereo not drawn) [CBK284591], `COc1ccc2cnc(C3CCCN(C(=O)C4CC4)C3)cc2c1C` (stereo not drawn) [CBK284716] is higher in “% of control remaining” value: 82.5314 for the first, 104.353 for the second.

Compared with `CC(CCc1ccccc1)NC(=O)CC1COc2ccccc2O1` (stereo not drawn) [CBK266203], `CC(Oc1ccccc1)C(=O)Nc1nn(Cc2ccc(S(=O)(=O)N3CCCC3)cc2)c2ccccc12` (stereo not drawn) [CBK061595] is lower in “% of control remaining” value: 99.8388 for the first, 93.2472 for the second.

First: CC(=O)C(C)n1c(CN2CCCC(C)C2)nc2c1c(=O)n(C)c(=O)n2C (stereo not drawn) [CBK306061]
Second: Cc1nc(C)n(CC2CCCN(Cc3cn4c(C)cccc4n3)C2)n1 (stereo not drawn) [CBK304007]
The “% of control remaining” value of the first is lower: 37.9683 for the first, 83.7889 for the second.

Going from `CCCn1nc(C)c(-c2cncn2CCc2c(C)nn(C)c2C)c1C` [CBK281475] to `Cn1c(SCC(=O)Nc2c(F)cc(F)cc2Br)nnc1-c1cccnc1` [CBK267583], the “% of control remaining” value rises from 77.606 to 104.451.

First: CC(=O)Nc1ccc(S(=O)(=O)Nc2nnc(C(C)(C)C)s2)cc1 [CBK045499]
Second: Cc1noc(C)c1S(=O)(=O)Nc1ccsc1C(=O)Nc1ccc(F)cc1 [CBK004604]
The “% of control remaining” value of the first is lower: 57.247 for the first, 79.7189 for the second.

First: Cc1ccc(C(=O)NC[C@H]2O[C@@H](CC(=O)N3CCOCC3)[C@H](O)[C@@H]2O)cc1 [CBK288925]
Second: O=C(O)c1ccc(N2C(=O)CC(N3CCN(C/C=C/c4ccccc4)CC3)C2=O)cc1 (stereo not drawn) [CBK261402]
The “% of control remaining” value of the first is lower: 78.385 for the first, 98.119 for the second.

First: Cc1c(C(=O)O)sc2nc3c(Cl)cc(C(=O)c4ccccc4O)cn3c(=O)c12 [CBK295619]
Second: O=C(O)c1cccc(NS(=O)(=O)c2ccc(Br)cc2F)c1 [CBK155691]
The “% of control remaining” value of the first is lower: 68.7114 for the first, 80.6909 for the second.

Going from `CC(=O)c1cc(C)c(C)cc1N` [CBK016322] to `Cc1cc(C)c2c(CC(=O)N(C)CCN(C)C)c(C)[nH]c2c1` [CBK282732], the “% of control remaining” value falls from 125.135 to 116.755.

First: O=C(Nc1ccc(C(F)(F)F)cc1)C1CCCS1 (stereo not drawn) [CBK006142]
Second: CC(C)(CN1CCCC1)NC(=O)c1cc(Cl)c(Cl)cc1C(=O)O [CBK287141]
The “% of control remaining” value of the first is lower: 51.683 for the first, 111.862 for the second.

Going from `OCCN1CC2(CCN(CCc3c[nH]c4ccccc34)CC2)c2ccccc21` [CBK144607T] to `O=S(=O)(NCc1cccnc1)c1ccc(Cl)c2ccccc12` [CBK264008], the “% of control remaining” value falls from 88.6725 to 87.81.

First: CCC(NC(=O)CCc1cccnc1)c1cn2cccnc2n1 (stereo not drawn) [CBK307247]
Second: Fc1cc(Br)ccc1-c1cnn(-c2ccccc2)n1 [CBK112925]
The “% of control remaining” value of the first is lower: 67.4317 for the first, 81.0659 for the second.

In the case of `Cc1cc(=O)c(C#N)c(C)[nH]1` [CBK023326], the “% of control remaining” value is reported as 59.2248.
